These results are taken from ChEMBL document CHEMBL2150933 (J Med Chem, 2012).

Structures are written as SMILES.

The subject of the experiment is NCI-H322M. The note with it: Homo sapiens, 48 h.

As usually defined, the GI50 is the concentration that inhibits growth by half. Higher therefore signals less potent growth inhibition. Regarding `CO[C@H](C(=O)[C@@H](O)[C@@H](C)O)[C@@H]1Cc2cc3cc(O[C@H]4C[C@@H](O[C@H]5C[C@@H](O)[C@H](O)[C@@H](C)O5)[C@H](O)[C@@H](C)O4)c(C)c(O)c3c(O)c2C(=O)[C@H]1O[C@H]1C[C@@H](O[C@H]2C[C@@H](O[C@H]3C[C@H](O)[C@H](O)[C@@H](C)O3)[C@H](O)[C@@H](C)O2)[C@H](O)[C@@H](C)O1`, the GI50 was 57.5 nM.

The molecule `CO[C@@H]([C@@H]1Cc2cc3cc(O[C@H]4C[C@@H](O[C@H]5C[C@@H](O)[C@H](O)[C@@H](C)O5)[C@H](O)[C@@H](C)O4)c(C)c(O)c3c(O)c2C(=O)[C@H]1O[C@H]1C[C@@H](O[C@H]2C[C@@H](O[C@H]3C[C@H](O)[C@H](O)[C@@H](C)O3)[C@H](O)[C@@H](C)O2)[C@H](O)[C@@H](C)O1)[C@@H](O)C(C)=O` had a GI50 of 23.4 nM.

Consider `CO[C@H](C(=O)C(C)=O)[C@@H]1Cc2cc3cc(O[C@H]4C[C@@H](O[C@H]5C[C@@H](O)[C@H](O)[C@@H](C)O5)[C@H](O)[C@@H](C)O4)c(C)c(O)c3c(O)c2C(=O)[C@H]1O[C@H]1C[C@@H](O[C@H]2C[C@@H](O[C@H]3C[C@H](O)[C@H](O)[C@@H](C)O3)[C@H](O)[C@@H](C)O2)[C@H](O)[C@@H](C)O1`, for which the GI50 is 15.8 nM.
